According to the supplement of paper PMC4166925:
± gives the standard deviation of the averaged measurements. The full ranking holds about 33,000 sequences; the median of “E-score (dimensionless, -0.5 to 0.5)” is about -0.046, and the highest 2% start at about 0.36. The list shows a part of the results.

Tested on: T1, SpTbr T-box DNA-binding domain (GST fusion)
T1 sequence: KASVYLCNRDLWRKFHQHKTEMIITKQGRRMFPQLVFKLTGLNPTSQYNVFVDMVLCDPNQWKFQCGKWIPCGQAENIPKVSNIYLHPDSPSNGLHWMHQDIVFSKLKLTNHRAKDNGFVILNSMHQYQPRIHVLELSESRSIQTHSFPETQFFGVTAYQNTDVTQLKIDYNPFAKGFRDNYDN
Assay: PBM E-score of 8-mer (E-score (dimensionless, -0.5 to 0.5)); Tbr is Tbrain of the sea star Patiria miniata (Pm) or the sea urchin Strongylocentrotus purpuratus (Sp); higher = stronger binding preference; most listed sequences are background and not binding sites
Details: the construct has about 5 more residues each side
In short: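 GST-fused Tbr T-box DNA-binding domains (the whole T-box plus about five flanking residues) were expressed in BL21 E. coli at 20 °C and purified by glutathione affinity chromatography. Universal Agilent oligonucleotide arrays were made double-stranded by primer extension, incubated with 200 nM protein in PBS (pH 7.5), then scanned and quantified. Every ungapped 8-mer was scored from probe intensities. The Universal PBM Analysis Suite gave each word an enrichment E-score, averaged over duplicate arrays.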

Row | Sequence | PBM E-score of 8-mer
1 | ATTCTCTC | 0.184 ± 0.073
2 | TCGATGAA | -0.0667 ± 0.029
3 | GAGACGAA | 0.0902 ± 0.03
4 | CTTCGTTC | -0.225 ± 0.016
5 | CGAGACCC | 0.023 ± 0.087
6 | CGTGTTCC | -0.00256 ± 0.0016
7 | GCGTCTCC | -0.148 ± 0.032
8 | AGGTGCCA | 0.46212 ± 0.00034
9 | CTTGATGC | -0.133 ± 0.077
10 | AGATGGAG | -0.0973 ± 0.04
11 | ATAATGAT | -0.0307 ± 0.086
12 | GAAAAAAC | -0.168 ± 0.084
13 | CTTTCTCA | 0.0539 ± 0.05
14 | ATACGGTA | -0.0948 ± 0.036
15 | ATACCACA | 0.0405 ± 0.0085
16 | GCGGTAGC | 0.0482 ± 0.081
17 | GAGTAGGC | -0.0954 ± 0.017
18 | CACCTGGC | 0.389 ± 0.021
19 | ACCCAACC | -0.172 ± 0.05
20 | TCGGCAGA | -0.151 ± 0.026
21 | AAGAACTT | -0.161 ± 0.0073
22 | ACCTAACC | 0.1222 ± 0.0011

Row | Sequence | PBM E-score of 8-mer
23 | CCAATCTC | -0.0229 ± 0.042
24 | CCAAATAA | -0.267 ± 0.079
25 | GTATCTTA | -0.126 ± 0.009
26 | ATGGTATG | -0.153 ± 0.00027
27 | AAATCAAG | 0.0228 ± 0.13
28 | ACATGACA | 0.273 ± 0.012
29 | ACCGCTTC | 0.134 ± 0.052
30 | CCAGGTGA | 0.306 ± 0.012
31 | AGGGGGAC | -0.244 ± 0.00034
32 | ATGCCTGC | -0.295 ± 0.061
33 | CTACGTAA | -0.143 ± 0.038
34 | ATGGAGGC | -0.106 ± 0.12
35 | CATACAGA | -0.139 ± 0.074
36 | AAGTTCGA | -0.1837 ± 0.00034
37 | AAGCTTGT | -0.0869 ± 0.0036
38 | GCCGTCAA | 0.18 ± 0.028
39 | CGAGCTTA | -0.102 ± 0.052
40 | CCTGATCC | -0.0305 ± 0.061
41 | AGCGACAA | 0.277 ± 0.011
42 | AAGGTTTG | -0.161 ± 0.046
43 | CTTCTGCC | -0.0597 ± 0.052
44 | GTTTGGCA | 0.184 ± 0.0023

Row | Sequence | PBM E-score of 8-mer
45 | TATGGCAA | -0.0439 ± 0.069
46 | CCTATCTC | 0.103 ± 0.0033
47 | GACGGCTC | 0.055 ± 0.031
48 | CTGGAGCA | -0.207 ± 0.0043
49 | AAATACCC | -0.264 ± 0.063
50 | GCTCGGCC | -0.171 ± 0.024
51 | GCAAAGCA | 0.0155 ± 0.053
52 | CTATCGAC | 0.139 ± 0.016
53 | CTCCCGTC | -0.079 ± 0.017
54 | ACAGTACT | -0.0283 ± 0.067
55 | AGGGCTCA | -0.185 ± 0.029
56 | AATCGGGA | -0.172 ± 0.031
57 | CTGTACGC | -0.142 ± 0.069
58 | GCCGAAAA | -0.0477 ± 0.021
59 | AGTCAACT | -0.022 ± 0.024
60 | CTAGTGCA | 0.168 ± 0.053
61 | ACAAATTC | 0.0389 ± 0.035
62 | CAATCGGC | 0.0185 ± 0.0079
63 | CACAATAA | 0.11 ± 0.04
64 | CCAAGCTC | -0.0336 ± 0.11
65 | CAGTATTC | -0.193 ± 0.092
66 | TGTGCCAA | 0.364 ± 0.021

Row | Sequence | PBM E-score of 8-mer
67 | GCCAAACA | 0.0846 ± 0.072
68 | CCTGACAG | 0.121 ± 0.0013
69 | GCCGCACC | 0.339 ± 0.023
70 | GGTCGAAA | -0.0954 ± 0.061
71 | GACCCTAC | -0.123 ± 0.017
72 | CGCGGTAA | 0.1 ± 0.0039
73 | AGGGCCTC | -0.335 ± 0.053
74 | AAGGCTGT | 0.145 ± 0.065
75 | GGTACTCA | -0.0116 ± 0.057
76 | ATAGCGAT | -0.0941 ± 0.058
77 | CCCTTCAC | 0.244 ± 0.03
78 | GGTTCGTA | -0.0542 ± 0.047
79 | GCACCATA | 0.0415 ± 0.021
80 | CTGCCGTA | -0.211 ± 0.037
81 | TATCACAA | 0.284 ± 0.056
82 | CTTTTGTC | -0.0884 ± 0.067
83 | CATTTTAG | 0.04 ± 0.0022
84 | CGCTCCAC | -0.132 ± 0.071
85 | ACAGCCTC | -0.149 ± 0.017
86 | TCTTTACA | 0.157 ± 0.019
